{
  "source": "the supplement of paper PMC8728848",
  "binders": {"B1": {"name": "Als3-2 (Candida albicans) (protein)", "chain": "KTITGVFNSFNSLTWSNAATYNYKGPGTPTWNAVLGWSLDGTSASPGDTFTLNMPCVFKFTTSQTSVDLTAHGVKYATCQFQAGEEFMTFSTLTCTVSNTLTPSIKALGTVTLPLAFNVGGTGSSVDLEDSKCFTAGTNTVTFNDGGKKISINVDFERSNVDPKGYLTD"}},
  "assay_in_all_cases": "glycan array binding signal (z-score within array); higher = stronger binding",
  "details_in_all_cases": "glycan notation: IUPAC condensed, linker removed",
  "key": {"GlcNAc(b1-3)Gal(b1-4)Glc": {"target": "GlcNAc(b1-3)Gal(b1-4)Glc", "outline": "(§1)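 Negative Z-scores can be read as non-binding. The Z-score is calculated within each array and then averaged across arrays of one protein sequence at different concentrations or buffers and across linkers. Arrays, 3228 in all, were curated from the Consortium for Functional Glycomics database and kept only where the protein sequence was available.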"}, "[1]": {"target": "GlcNAc(b1-3)Gal(b1-4)GlcNAc", "outline": "as §1"}, "[2]": {"target": "GlcNAc(b1-3)Gal(b1-4)GlcNAc(b1-2)Man(a1-3)[GlcNAc(b1-3)Gal(b1-4)GlcNAc(b1-2)Man(a1-6)]Man(b1-4)GlcNAc(b1-4)GlcNAc", "outline": "as §1"}, "[3]": {"target": "GlcNAc(b1-3)Gal(b1-4)GlcNAc(b1-2)Man(a1-3)[GlcNAc(b1-3)Gal(b1-4)GlcNAc(b1-2)Man(a1-6)]Man(b1-4)GlcNAc(b1-4)[Fuc(a1-6)]GlcNAc", "outline": "as §1"}, "[4]": {"target": "GlcNAc(b1-3)Gal(b1-4)GlcNAc(b1-2)[GlcNAc(b1-3)Gal(b1-4)GlcNAc(b1-6)]Man(a1-6)[GlcNAc(b1-3)Gal(b1-4)GlcNAc(b1-2)Man(a1-3)]Man(b1-4)GlcNAc(b1-4)GlcNAc", "outline": "as §1"}, "[5]": {"target": "GlcNAc(b1-3)Gal(b1-4)GlcNAc(b1-3)Gal(b1-4)GlcNAc", "outline": "as §1"}, "[6]": {"target": "GlcNAc(b1-3)Gal(b1-4)GlcNAc(b1-3)Gal(b1-4)GlcNAc(b1-2)Man(a1-3)[GlcNAc(b1-3)Gal(b1-4)GlcNAc(b1-3)Gal(b1-4)GlcNAc(b1-2)Man(a1-6)]Man(b1-4)GlcNAc(b1-4)GlcNAc", "outline": "as §1"}, "[7]": {"target": "GlcNAc(b1-3)Gal(b1-4)GlcNAc(b1-3)Gal(b1-4)GlcNAc(b1-2)Man(a1-3)[GlcNAc(b1-3)Gal(b1-4)GlcNAc(b1-3)Gal(b1-4)GlcNAc(b1-2)Man(a1-6)]Man(b1-4)GlcNAc(b1-4)[Fuc(a1-6)]GlcNAc", "outline": "as §1"}, "[8]": {"target": "GlcNAc(b1-3)Gal(b1-4)GlcNAc(b1-3)Gal(b1-4)GlcNAc(b1-2)[GlcNAc(b1-3)Gal(b1-4)GlcNAc(b1-3)Gal(b1-4)GlcNAc(b1-6)]Man(a1-6)[GlcNAc(b1-3)Gal(b1-4)GlcNAc(b1-3)Gal(b1-4)GlcNAc(b1-2)Man(a1-3)]Man(b1-4)GlcNAc(b1-4)[Fuc(a1-6)]GlcNAc", "outline": "as §1"}, "[9]": {"target": "GlcNAc(b1-3)Gal(b1-4)GlcNAc(b1-3)Gal(b1-4)GlcNAc(b1-3)Gal(b1-4)GlcNAc(b1-2)Man(a1-3)[GlcNAc(b1-3)Gal(b1-4)GlcNAc(b1-3)Gal(b1-4)GlcNAc(b1-3)Gal(b1-4)GlcNAc(b1-2)Man(a1-6)]Man(b1-4)GlcNAc(b1-4)GlcNAc", "outline": "as §1"}, "[10]": {"target": "GlcNAc(b1-3)Gal(b1-4)GlcNAc(b1-3)Gal(b1-4)GlcNAc(b1-3)Gal(b1-4)GlcNAc(b1-2)Man(a1-3)[GlcNAc(b1-3)Gal(b1-4)GlcNAc(b1-3)Gal(b1-4)GlcNAc(b1-3)Gal(b1-4)GlcNAc(b1-2)Man(a1-6)]Man(b1-4)GlcNAc(b1-4)[Fuc(a1-6)]GlcNAc", "outline": "as §1"}, "[11]": {"target": "GlcNAc(b1-3)Gal(b1-4)GlcNAc(b1-3)Gal(b1-4)GlcNAc(b1-3)Gal(b1-4)GlcNAc(b1-2)[GlcNAc(b1-3)Gal(b1-4)GlcNAc(b1-3)Gal(b1-4)GlcNAc(b1-3)Gal(b1-4)GlcNAc(b1-6)]Man(a1-6)[GlcNAc(b1-3)Gal(b1-4)GlcNAc(b1-3)Gal(b1-4)GlcNAc(b1-3)Gal(b1-4)GlcNAc(b1-2)Man(a1-3)]Man(b1-4)GlcNAc(b1-4)[Fuc(a1-6)]GlcNAc", "outline": "as §1"}, "[12]": {"target": "GlcNAc(b1-3)Gal(b1-4)GlcNAc(b1-3)Gal(b1-4)GlcNAc(b1-3)Gal(b1-4)GlcNAc(b1-3)Gal(b1-4)GlcNAc(b1-2)Man(a1-3)[GlcNAc(b1-3)Gal(b1-4)GlcNAc(b1-3)Gal(b1-4)GlcNAc(b1-3)Gal(b1-4)GlcNAc(b1-3)Gal(b1-4)GlcNAc(b1-2)Man(a1-6)]Man(b1-4)GlcNAc(b1-4)GlcNAc", "outline": "as §1"}, "[13]": {"target": "GlcNAc(b1-3)Gal(b1-4)GlcNAc(b1-3)Gal(b1-4)GlcNAc(b1-3)Gal(b1-4)GlcNAc(b1-3)Gal(b1-4)GlcNAc(b1-2)Man(a1-3)[GlcNAc(b1-3)Gal(b1-4)GlcNAc(b1-3)Gal(b1-4)GlcNAc(b1-3)Gal(b1-4)GlcNAc(b1-3)Gal(b1-4)GlcNAc(b1-2)Man(a1-6)]Man(b1-4)GlcNAc(b1-4)[Fuc(a1-6)]GlcNAc", "outline": "as §1"}, "[14]": {"target": "GlcNAc(b1-3)Gal(b1-4)GlcNAc(b1-3)Gal(b1-4)GlcNAc(b1-3)Gal(b1-4)GlcNAc(b1-3)Gal(b1-4)GlcNAc(b1-2)[GlcNAc(b1-3)Gal(b1-4)GlcNAc(b1-3)Gal(b1-4)GlcNAc(b1-3)Gal(b1-4)GlcNAc(b1-3)Gal(b1-4)GlcNAc(b1-6)]Man(a1-6)[GlcNAc(b1-3)Gal(b1-4)GlcNAc(b1-3)Gal(b1-4)GlcNAc(b1-3)Gal(b1-4)GlcNAc(b1-3)Gal(b1-4)GlcNAc(b1-2)Man(a1-3)]Man(b1-4)GlcNAc(b1-4)[Fuc(a1-6)]GlcNAc", "outline": "as §1"}, "[15]": {"target": "GlcNAc(b1-3)Gal(b1-4)GlcNAc(b1-3)Gal(b1-4)GlcNAc(b1-3)GalNAc", "outline": "as §1"}, "[16]": {"target": "GlcNAc(b1-3)Gal(b1-4)GlcNAc(b1-3)GalNAc", "outline": "as §1"}, "[17]": {"target": "GlcNAc(b1-3)Gal(b1-4)GlcNAc(b1-3)[GlcNAc(b1-3)Gal(b1-4)GlcNAc(b1-3)]GalNAc", "outline": "as §1"}, "[18]": {"target": "GlcNAc(b1-3)Gal(b1-4)GlcNAc(b1-6)[Gal(b1-3)]GalNAc", "outline": "as §1"}, "[19]": {"target": "GlcNAc(b1-3)Gal(b1-4)GlcNAc(b1-6)[GlcNAc(b1-3)Gal(b1-3)]GalNAc", "outline": "as §1"}, "[20]": {"target": "GlcNAc(b1-3)Gal(b1-4)GlcNAc(b1-6)[GlcNAc(b1-3)]Gal(b1-4)GlcNAc", "outline": "as §1"}, "GlcNAc(b1-3)GalNAc": {"target": "GlcNAc(b1-3)GalNAc", "outline": "as §1"}},
  "note": "The list shows a part of the results.",
  "data": [
    {"binder": "B1", "values": [
      {"measurement": "glycan array binding signal (z-score)", "setting": "GlcNAc(b1-3)Gal(b1-4)Glc", "result": -0.379},
      {"measurement": "glycan array binding signal (z-score)", "setting": "[1]", "result": -0.583},
      {"measurement": "glycan array binding signal (z-score)", "setting": "[2]", "result": -0.5},
      {"measurement": "glycan array binding signal (z-score)", "setting": "[3]", "result": -0.562},
      {"measurement": "glycan array binding signal (z-score)", "setting": "[4]", "result": -0.296},
      {"measurement": "glycan array binding signal (z-score)", "setting": "[5]", "result": -0.478},
      {"measurement": "glycan array binding signal (z-score)", "setting": "[6]", "result": 1.02},
      {"measurement": "glycan array binding signal (z-score)", "setting": "[7]", "result": 1.17},
      {"measurement": "glycan array binding signal (z-score)", "setting": "[8]", "result": 0.939},
      {"measurement": "glycan array binding signal (z-score)", "setting": "[9]", "result": -0.47},
      {"measurement": "glycan array binding signal (z-score)", "setting": "[10]", "result": -0.435},
      {"measurement": "glycan array binding signal (z-score)", "setting": "[11]", "result": 0.484},
      {"measurement": "glycan array binding signal (z-score)", "setting": "[12]", "result": -0.006},
      {"measurement": "glycan array binding signal (z-score)", "setting": "[13]", "result": 3.13},
      {"measurement": "glycan array binding signal (z-score)", "setting": "[14]", "result": -0.036},
      {"measurement": "glycan array binding signal (z-score)", "setting": "[15]", "result": -0.04},
      {"measurement": "glycan array binding signal (z-score)", "setting": "[16]", "result": -0.214},
      {"measurement": "glycan array binding signal (z-score)", "setting": "[17]", "result": 1.28},
      {"measurement": "glycan array binding signal (z-score)", "setting": "[18]", "result": 0.503},
      {"measurement": "glycan array binding signal (z-score)", "setting": "[19]", "result": -0.331},
      {"measurement": "glycan array binding signal (z-score)", "setting": "[20]", "result": -0.076},
      {"measurement": "glycan array binding signal (z-score)", "setting": "GlcNAc(b1-3)GalNAc", "result": -0.425}
    ]}
  ]
}
